Source: PubChem BioAssay AID485294 (National Center for Advancing Translational Sciences (NCATS), 2010)
Several values for one entry are separate records, joined by “and”; a condition that tells them apart may be missing. Equal values may be shown once. Hit rate of the full screen: of about 370,000 compounds, about 150 (0.041%) were called active. The inconclusive results got no clear call from the source; some entries with a clear call stand among them for comparison. Calls come from the whole dose curve; as a rule, active = well fitted inhibition curve with a large enough effect; inconclusive = small, poorly fitted or top-dose-only effect; inactive = flat fitted curve, though single readings scatter. Where the call is inconclusive, the potency comes from a doubtful curve fit.

molecular target: Beta-lactamase (Escherichia coli (strain K12)) (UniProt P00811); experiment: qHTS Inhibitors of AmpC Beta-Lactamase (assay with detergent); conditions: AmpC hydrolysis of nitrocefin, absorbance 480 nm, 0.01% Triton; series mostly up to 114 µM; note: nearly all actives have a fitted effect of over 25% in size
Procedure, shortened: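 20 mM phosphate pH 7.0 + 0.01% (detergent screen) or 0.0001% Triton X-100; 5.3 nM AmpC reagent; cpd preinc 15 min RT; nitrocefin (800 uM stock) to start; A480 q20 s × 4 min; Activity was normalised to no-enzyme and no-compound control wells.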
Potency is the fitted concentration of half-maximal effect; tags give direction and shape of the fitted curve.

Sequence of UniProt P00811 (P00811 whole entry, looked up): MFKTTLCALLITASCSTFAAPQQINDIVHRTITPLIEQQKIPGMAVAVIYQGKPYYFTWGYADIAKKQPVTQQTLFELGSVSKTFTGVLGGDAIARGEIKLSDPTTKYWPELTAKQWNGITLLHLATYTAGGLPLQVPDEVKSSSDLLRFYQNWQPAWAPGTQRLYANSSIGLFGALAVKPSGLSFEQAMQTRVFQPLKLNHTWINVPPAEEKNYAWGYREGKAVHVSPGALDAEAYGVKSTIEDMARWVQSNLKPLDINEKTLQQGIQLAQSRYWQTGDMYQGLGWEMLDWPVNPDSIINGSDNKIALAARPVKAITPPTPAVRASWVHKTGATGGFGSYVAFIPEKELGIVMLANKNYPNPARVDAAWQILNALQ

Row | Compound | Potency
1 | CCCCNS(=O)(=O)c1ccc2nc(-c3cccnc3)cc(C(=O)NCCC)c2c1 | inactive
2 | Cc1cccc2cc(/C=N/NC(=O)c3ccncc3)c(Cl)nc12 | inconclusive: 31.6 µM [inhibitor, full curve]
3 | COc1ccc(CCNC(=S)N2CCN(S(=O)(=O)c3ccccc3F)CC2)cc1 | inactive
4 | C[C@H](NC(=O)c1nc[nH]c1C(=O)NCC(=O)OC(C)(C)C)c1ccccc1 | inconclusive: 4.47 µM [inhibitor, full curve, poor fit]
5 | CCCCn1c(N)c(N(CC(C)C)C(=O)c2ccc(C)c(S(=O)(=O)N3CCCCC3)c2)c(=O)[nH]c1=O | inactive
6 | CNCCCC12CCC(c3ccccc31)c1ccccc12 | inconclusive: 100 µM [inhibitor, single point] and inconclusive: 112 µM [inhibitor, partial curve, poor fit]
7 | COc1ccc(S(=O)(=O)n2nc(OC(C)=O)cc2N)cc1 | inactive
8 | CCOC(=O)C1CCN(C(=O)c2ccc3c(Cl)c4c(nc3c2)CCCC4)CC1 | inconclusive: 17.8 µM [inhibitor, full curve, poor fit]
9 | CCn1c(-c2cc(Cl)ccc2OC)n[nH]c1=S | inconclusive: 1.58 µM [inhibitor, full curve, poor fit]
10 | Cc1c(NS(=O)(=O)c2cc(C(=O)O)ccc2Cl)c(=O)n(-c2ccccc2)n1C | inconclusive: 100 µM [inhibitor, partial curve]
11 | Cc1c(Cl)cccc1NC(=O)C(=O)NNC(=O)c1ccccc1F | inconclusive: 89.1 µM [inhibitor, single point]
12 | CCS(=O)(=O)N1CCCC(C(=O)NCCc2ccc(C)cc2)C1 (stereo not drawn) | inconclusive: 0.126 µM [inhibitor, full curve, poor fit]
13 | O=C(O)COc1ccccc1/C=N/NC(=O)c1cccc(S(=O)(=O)Nc2cccc(Cl)c2)c1 | inactive
14 | CO/N=C/Cc1c([N+](=O)[O-])c(C)nn1C | inactive
15 | c1ccc(Nc2nc(-c3ccccn3)cs2)cc1 | inactive
16 | C=CCn1c(O)c(N=NC(=S)Nc2cccc(C)c2)c2ccccc21 | inconclusive: 31.6 µM [inhibitor, full curve, poor fit]
17 | CC(C)Cn1c(N)c(C(=O)COC(=O)c2cccnc2Cl)c(=O)n(C)c1=O | inconclusive: 25.1 µM [inhibitor, full curve, poor fit]
18 | CC(C)=CC(=O)O[C@@H]1Cc2cc3ccc(=O)oc3cc2OC1(C)C | inactive
19 | Cn1c(=O)oc2cc(S(=O)(=O)N3CCC(C(=O)N4CC=C(c5ccccc5)CC4)CC3)ccc21 | inconclusive: 22.4 µM [inhibitor, single point]
20 | OCCN=c1cc(-c2ccccc2)oc2ccc(Cl)cc12 | inconclusive: 70.8 µM [inhibitor, partial curve]
21 | CCOc1ccc2c(c1)-c1c(ssc1=S)C(C)(C)N2C(=O)c1ccco1 | inconclusive: 0.355 µM [inhibitor, full curve, poor fit]
22 | O=C(CN1CCCC1=O)NCCc1ccccc1 | inconclusive: 4.47 µM [inhibitor, single point]
23 | CC(=O)N1CCc2c(sc3c2c(=O)n(-c2ccccc2)c(=O)n3CC(=O)NCC2CCCO2)C1 (stereo not drawn) | inactive

Row | Compound | Potency
24 | COC(=O)c1cccc(NC(=O)CSc2nnnn2C)c1 | inconclusive: 3.16 µM [inhibitor, full curve, poor fit]
25 | CCN(C(=O)/C=C/c1ccc2c(c1)OCO2)c1ccccc1 | inconclusive: 0.794 µM [inhibitor, full curve]
26 | O=C(Cc1ccc(Cl)cc1)Nc1ccc(N2CCN(C(=O)c3ccco3)CC2)c(Cl)c1 | inconclusive: 5.01 µM [inhibitor, full curve]
27 | Cc1cc(C)c2c(=O)[nH]c(SCC(=O)c3ccc(F)c(C)c3)nc2n1 | inactive
28 | CCCc1nc2sc3c(=O)n(N)cnc3c2c2c1COC(C)(C)C2 | inconclusive: 79.4 µM [inhibitor, partial curve]
29 | O=C(COC(=O)c1cccnc1Nc1ccccc1F)NC1CC1 | inactive
30 | Cc1noc(C)c1CSc1nc2ccccc2s1 | inconclusive: 44.7 µM [inhibitor, partial curve]
31 | CCOC(=O)N1CCN(C(=O)c2ccccc2NC(=O)COc2ccccc2C)CC1 | inconclusive: 100 µM [inhibitor, partial curve, poor fit]
32 | CCCn1c(C2CCCN2c2nc(-c3cccc(Br)c3)cs2)nc2ccccc21 (stereo not drawn) | inactive
33 | Cc1ccc2nc(/C(C#N)=C/c3cccc(Br)c3)[nH]c2c1 | inactive
34 | CC(C)(CNC(=S)NCCc1ccccc1)CNC(=S)NCCc1ccccc1 | inactive
35 | c1ccc(C[n+]2cccc3c4ccccc4ccc32)cc1 | inconclusive: 8.91 µM [inhibitor, full curve, poor fit]
36 | Cc1ccc(N2CC(C(=O)NCCC3=CCCCC3)CC2=O)cc1 (stereo not drawn) | inconclusive: 7.94 µM [inhibitor, full curve, poor fit]
37 | CCOc1ccc(CCNC(=O)CCCc2cc(-c3ccc(OCC)cc3)on2)cc1 | inactive
38 | [O-]/C(=C(\C(=S)Nc1ccccc1F)[n+]1ccccc1)c1ccc(-c2ccccc2)cc1 | inactive
39 | N#Cc1c(/N=C/c2ccco2)oc(-c2ccccc2)c1-c1ccccc1 | inconclusive: 10 µM [inhibitor, full curve, poor fit]
40 | CCOc1ccc(OCC(=O)N2CCOCC2)cc1 | inconclusive: 0.631 µM [inhibitor, full curve, poor fit]
41 | N#CC1=C(N)N(c2ccc(Cl)c(Cl)c2)C(=O)C1 | inconclusive: 14.1 µM [inhibitor, full curve, poor fit]
42 | CC(NC(=O)c1cccc(S(=O)(=O)N2CCN(C)CC2)c1)C1CC2CCC1C2 (stereo not drawn) | inconclusive: 0.562 µM [inhibitor, full curve, poor fit]
43 | Cn1c(N)c(C(=O)COC(=O)c2cc(C3CC3)nc3ccccc23)c(=O)n(C)c1=O | inconclusive: 79.4 µM [inhibitor, partial curve, poor fit]
44 | COc1cccc(CNC(=O)Cn2c(=O)oc3cc(S(=O)(=O)N4CCCC4)ccc32)c1 | inactive
45 | O=C(CCc1nc2ccccc2c(=O)[nH]1)NCCN1C(=O)S/C(=C\c2ccccc2Cl)C1=O | inconclusive: 1.58 µM [inhibitor, full curve, poor fit]
46 | CCC(=O)N1CCc2cc(Br)cc(S(=O)(=O)CCC(=O)Nc3cccc(CC)c3)c21 | inactive

Row | Compound | Potency
47 | N/C(=N\OC(=O)c1cccc(C(F)(F)F)c1)c1cnccn1 | inconclusive: 56.2 µM [inhibitor, partial curve]
48 | COc1ccc(C(=O)N2CCC(NC(=O)C(Cc3ccccc3OC)NC(C)=O)CC2)cc1 (stereo not drawn) | inactive
49 | CC(C)CN(C(=O)CCNC(=O)c1ccccc1Cl)C1CCS(=O)(=O)C1 (stereo not drawn) | inconclusive: 28.2 µM [inhibitor, full curve, poor fit]
50 | COCCNC(=O)C(c1ccc(C)o1)N(Cc1cccs1)C(=O)c1snc(C(N)=O)c1N (stereo not drawn) | inconclusive: 50.1 µM [inhibitor, partial curve]
51 | CCOC(=O)c1c(/N=C/C2=C(O)CC(C)(C)CC2=O)sc(C(C)=O)c1C | inactive
52 | COC(=O)c1ccc(N=NN2CCCCC2)cc1 | inconclusive: 50.1 µM [inhibitor, partial curve]
53 | CC1CN(C(=O)CSc2nnc(-c3ccc(Cl)cc3)n2C)CC(C)O1 (stereo not drawn) | inactive
54 | O=C1NN(c2ccccc2)C(=O)/C1=C/c1ccc(-c2ccc(C(=O)O)cc2)o1 | inconclusive: 0.562 µM [inhibitor, full curve, poor fit]
55 | COc1cc(OC)nc(NC2OC(=O)c3ccccc32)n1 (stereo not drawn) | inconclusive: 2.82 µM [inhibitor, full curve, poor fit]
56 | CC(O)c1ccc2c(c1)OCCOCCN(C)CCOCCO2 (stereo not drawn) | inconclusive: 20 µM [inhibitor, full curve, poor fit]
57 | COc1ccc(-n2nnnc2SCC(=O)NCc2ccco2)cc1OC | inconclusive: 112 µM [inhibitor, partial curve, poor fit]
58 | COCCn1c(=N)c(C(=O)NCc2ccco2)cc2c(=O)n3ccccc3nc21 | inconclusive: 44.7 µM [inhibitor, partial curve, poor fit]
59 | O=C(NCC1CC1)NC(=O)c1c(F)cccc1Cl | inactive
60 | CSc1nc2ccc(S(=O)(=O)N3CCCC3)cc2s1 | inconclusive: 44.7 µM [inhibitor, single point]
61 | COc1ccccc1N1CCN(C(=O)C2CCN(S(=O)(=O)N3CCOCC3)CC2)CC1 | inconclusive: 0.794 µM [inhibitor, full curve]
62 | O=C(CCC1CC(=O)Nc2ccccc21)NCc1ccccc1 (stereo not drawn) | inconclusive: 0.631 µM [inhibitor, full curve, poor fit]
63 | Cn1c(CNC(=O)c2ccco2)nnc1SCC(=O)c1ccc(Br)cc1 | inconclusive: 0.631 µM [inhibitor, full curve, poor fit]
64 | Cn1nnnc1P(=O)(c1ccccc1)c1ccccc1 | inconclusive: 7.94 µM [inhibitor, full curve, poor fit]
65 | Cc1noc(C(=O)Nc2ccc(Cl)cc2)c1Cl | inactive
66 | CC(OC(=O)CNS(=O)(=O)/C=C/c1ccccc1)C(=O)Nc1ccc(S(=O)(=O)N2CCCC2)cc1 (stereo not drawn) | inconclusive: 4.47 µM [inhibitor, full curve]
67 | Cc1cccc(Nc2nc(N)nc(CSc3nccn3C)n2)c1 | inconclusive: 63.1 µM [inhibitor, partial curve]
68 | O=C(Nc1ccccc1)Nc1ccc2ocnc2c1 | inactive
